Experimental data from the supplement of paper PMC4466236.
In all, about 33,000 sequences were measured (“E-score (dimensionless, -0.5 to 0.5)”: median about -0.058, highest 2% from about 0.35 on). This is one part of the list.

system: MvaT; assay: PBM 8-mer E-score (mean of HK and ME arrays) (E-score (dimensionless, -0.5 to 0.5)); higher = stronger relative binding preference; most listed sequences are background and not binding sites
Summary of the method: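 Reported values are rank-based E-scores, taken as the mean of two universal arrays and parsed with a custom script. Each 8-mer score falls between -0.5 and 0.5. The arrays, ME and HK, were double-stranded 60-mers with a constant 25-mer primer region and a variable 35-mer region covering all 8-mers. They were probed, by an earlier protocol, with full-length P. aeruginosa MvaT carrying an N-terminal glutathione S-transferase fusion.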

Row | Sequence | PBM 8-mer E-score
1 | CTAACATA | 0.262
2 | GGATAATA | 0.403
3 | AACACAGA | -0.0816
4 | GAATTAAC | 0.256
5 | CAGTAGAC | -0.0804
6 | GGTGGTTA | -0.0682
7 | CTGGTTGC | -0.126
8 | CACGGCGC | -0.244
9 | ACGGCTAT | -0.171
10 | CCGTTGTC | -0.0529
11 | AAAATTGG | 0.147
12 | GGGCTCGA | -0.241
13 | TAGTCACA | 0.0578
14 | CTAAGGAG | -0.15
15 | CCCGTATC | -0.18
16 | GCCGGAAA | -0.0848
17 | GAGCCTCA | -0.239
18 | GGTTGCAC | -0.174
19 | AGCTGGCC | -0.255
20 | GATAGGGC | -0.179
21 | GCGATTTA | 0.0849
22 | AAAGGAAT | 0.182

Row | Sequence | PBM 8-mer E-score
23 | CATCCTAC | -0.22
24 | AGCCACTG | -0.0963
25 | GAATCTAA | 0.0908
26 | CCCCCGAA | -0.319
27 | AACTGAGT | -0.0534
28 | CCTCCTCA | -0.284
29 | TCCAGACA | -0.13
30 | GACTTGTA | 0.0741
31 | AGCCCAGG | -0.263
32 | GAGACGCC | -0.302
33 | GTAACTCA | 0.116
34 | AGACACGC | -0.0796
35 | AATGGTAT | 0.1
36 | CTACCTCC | -0.196
37 | AAGGAGGG | -0.287
38 | CAAACGGA | 0.123
39 | ACACTGCG | -0.134
40 | ACCCATAC | 0.0312
41 | ACTGCCCT | -0.182
42 | AAAAAGGC | -0.0522
43 | AAAGTGCA | 0.106
44 | CGCGGCGC | -0.0697

Row | Sequence | PBM 8-mer E-score
45 | ACATAGAT | 0.201
46 | CAAGAGAC | -0.183
47 | ATCGCTGA | -0.165
48 | CCCCACAC | -0.135
49 | CCCCTTTC | -0.166
50 | TCACCGGA | -0.182
51 | GGAGAAAC | -0.0882
52 | ATGTGATG | -0.112
53 | ATCAAAGC | 0.00523
54 | TCGGCCGA | -0.0545
55 | TAGCTACA | -0.0781
56 | TAGCGAAA | 0.0719
57 | ACAGCTGT | -0.167
58 | AATTTGAT | 0.26
59 | CGTCGCTC | -0.145
60 | GGGCCCAC | -0.271
61 | ACCGCTCA | -0.25
62 | ATTTCGAC | 0.112
63 | GCAACAGC | -0.0926
64 | CGGGAGTA | 0.0408
65 | ACTCGGAA | 0.0222
66 | TATCGGCA | -0.0374

Row | Sequence | PBM 8-mer E-score
67 | CCCCAATC | -0.177
68 | TTCAGCAA | 0.11
69 | ACAACCGC | -0.0804
70 | CGGATAAG | -0.103
71 | CGTGGCCC | -0.128
72 | AATCTCGA | 0.179
73 | ACCATATA | 0.332
74 | GGGGTGCA | -0.187
75 | CGACTGCG | -0.241
76 | GTCATGAC | 0.063
77 | ACCAAATG | 0.0683
78 | ACCCTAGT | -0.0199
79 | CGAAACAA | 0.161
80 | GCAATCCA | -0.0685
81 | GAAACTCA | -0.131
82 | AAGAGCGA | -0.0398
83 | GTCCTGCA | -0.189
84 | ACATTTCG | 0.175
85 | ATGGTCCG | -0.0605
86 | CCCCCCGA | -0.273
